Reference: the supplement of paper PMC11880418
Counter-ions that a name gives are not always drawn. The list shows a part of the results. The data scatter; read single values as rough.

Experiments:
Test in all cases: ALDHbr (CSC) cell proportion score relative to DMSO vehicle (ratio to DMSO); breast (SUM159) / gastric (MKN45) / pancreatic (PANC1) / colon cancer lines; ALDHbr cells have high ALDH activity and are rich in cancer stem cells (CSC); higher = more CSC (ALDHbr) cells remaining
Settings in all cases: 10 µM; 72 h
MKN45 = tested on: MKN45
PANC1 = tested on: PANC1
SUM159 = tested on: SUM159
T84 = tested on: T84
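Note: High-content imaging of ALDEFLUOR-stained cells with Hoechst-labelled nuclei in 384-well plates, triplicate wells, scored as Z-score against 0.1% DMSO vehicle, negative meaning fewer ALDHbr cells.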

Row | Compound | ALDHbr (MKN45) | ALDHbr (PANC1) | ALDHbr (SUM159) | ALDHbr (T84)
1 | C=CCOC(Cn1ccnc1)c1ccc(Cl)cc1Cl (configuration not stated) [Enilconazole] | 1.14 | 1.32 | 1.03 | 0.829
2 | COc1cc(C)nc(-n2nc(C)cc2OC)n1 [Epirizole] | 0.909 | 0.895 | 0.985 | 1.05
3 | CCn1cc(C(=O)O)c(=O)c2cc(F)c(N3CCNCC3)cc21 [Norfloxacin] | 0.467 | 0.726 | 0.99 | 0.63
4 | Nc1ncnc2c1ncn2C1OC(COP(=O)(O)O)C(O)C1O (configuration not stated) [Adenosine 5'-monophosphate monohydrate] | 1.1 | 0.807 | 1.42 | 1.02
5 | CN(C)C/C=C(/c1ccc(Br)cc1)c1cccnc1 [Zimelidine dihydrochloride monohydrate] | 0.992 | 0.909 | 0.855 | 1.02
6 | O=C1O[C@H]([C@@H](O)CO)C(O)=C1O [Ascorbic acid] | 1.27 | 0.845 | 1.18 | 0.925
7 | CC(C)NC(=N)NC(=N)Nc1ccc(Cl)cc1 [Proguanil hydrochloride] | 1.33 | 0.867 | 0.897 | 0.85
8 | O=c1n(CCCN2CCN(c3cccc(Cl)c3)CC2)nc2ccccn12 [Trazodone hydrochloride] | 0.865 | 0.514 | 0.962 | 0.858
9 | COC(c1ccccc1)(c1ccccc1)[C@H](Oc1nc(C)cc(C)n1)C(=O)O [Ambrisentan] | 0.888 | 0.925 | 0.672 | 0.971
10 | CCCCc1nc(Cl)c(CO)n1Cc1ccc(-c2ccccc2-c2nnn[nH]2)cc1 [Losartan] | 0.987 | 0.875 | 1.05 | 0.949
11 | Nc1ccc(S(=O)(=O)NC(=O)c2ccccc2)cc1 [Sulfabenzamide] | 1.3 | 0.928 | 1.14 | 1.1
12 | NCCNCCNCCNCCN [Tetraethylenepentamine pentahydrochloride] | 0.775 | 0.8 | 1.6 | 0.943
13 | CN(C)CCCN1c2ccccc2Sc2ccccc21 [Promazine hydrochloride] | 0.991 | 1.01 | 0.905 | 0.901
14 | COc1ccc(C(=O)c2ccccc2)c(O)c1 [Oxybenzone] | 1.21 | 0.758 | 0.972 | 1.32
15 | O=C1Nc2ccc(Cl)cc2[C@@](C#CC2CC2)(C(F)(F)F)O1 [Efavirenz] | 0.816 | 0.924 | 0.819 | 1.01
16 | O=C(CCCN1CCC(O)(c2ccc(Br)cc2)CC1)c1ccc(F)cc1 [Bromperidol] | 0.94 | 0.836 | 0.908 | 0.822
17 | CCCCN(CCCC)CCC(O)c1cc2c(Cl)cc(Cl)cc2c2cc(C(F)(F)F)ccc12 (configuration not stated) [Halofantrine hydrochloride] | 1.26 | 3 | 0.817 | 0.445
18 | CNNCc1ccc(C(=O)NC(C)C)cc1 [Procarbazine hydrochloride] | 1.29 | 0.991 | 1.25 | 1.21
19 | COc1ccccc1O [Guaiacol] | 1.03 | 0.956 | 0.878 | 0.93
20 | OC(Cn1cncn1)(Cn1cncn1)c1ccc(F)cc1F [Fluconazole] | 1.1 | 0.951 | 1.11 | 0.851
21 | OCCN1CCN(CCCN2c3ccccc3C=Cc3ccccc32)CC1 [Opipramol dihydrochloride] | 0.751 | 0.923 | 0.848 | 0.762
22 | CN1CC2c3ccccc3Oc3ccc(Cl)cc3C2C1 (configuration not stated) [Asenapine maleate] | 1.02 | 0.826 | 0.969 | 0.999
23 | Nc1c2c(nc3ccccc13)CCCC2 [Tacrine hydrochloride] | 1.49 | 0.94 | 1.06 | 0.783
24 | Nc1ncnc2c1ncn2[C@@H]1O[C@H](CO)[C@@H](O)[C@@H]1O [Vidarabine] | 0.886 | 0.877 | 1.9 | 0.903

Row | Compound | ALDHbr (MKN45) | ALDHbr (PANC1) | ALDHbr (SUM159) | ALDHbr (T84)
25 | C=CC(N)CCC(=O)O (configuration not stated) [Vigabatrin hydrochloride] | 0.968 | 0.764 | 1.03 | 0.952
26 | CN[C@@H]1[C@H](O)[C@H](NC)[C@H]2O[C@@]3(O)C(=O)C[C@@H](C)O[C@H]3O[C@@H]2[C@H]1O [Spectinomycin dihydrochloride] | 0.885 | 0.694 | 0.818 | 0.974
27 | CCc1ccc(CCOc2ccc(CC3SC(=O)NC3=O)cc2)nc1 (configuration not stated) [Pioglitazone] | 0.819 | 0.595 | 0.778 | 0.662
28 | Cc1cccc(Nc2ccncc2S(=O)(=O)NC(=O)NC(C)C)c1 [Torsemide] | 1.08 | 0.898 | 0.901 | 1.16
29 | CSc1nc2cc(Cl)c(Oc3cccc(Cl)c3Cl)cc2[nH]1 [Triclabendazole] | 0.809 | 1.06 | 0.755 | 0.887
30 | CCCOc1ccccc1-c1nc2[nH]nnc2c(=O)[nH]1 [Zaprinast] | 0.991 | 0.916 | 1.43 | 0.995
31 | CN(C)C(=O)C(CCN1CCC(O)(c2ccc(Cl)cc2)CC1)(c1ccccc1)c1ccccc1 [Loperamide hydrochloride] | 0.78 | 0.667 | 0.705 | 0.148
32 | CCN(CCCc1ccccc1)CCCc1ccccc1 [Alverine citrate salt] | 1.38 | 0.756 | 1.04 | 0.786
33 | COC(=O)N/N=C/c1c[n+]([O-])c2ccccc2[n+]1[O-] [Carbadox] | 1.12 | 1.08 | 1.69 | 1.07
34 | c1coc(CNc2ncnc3nc[nH]c23)c1 [6-Furfurylaminopurine] | 0.931 | 0.878 | 0.945 | 0.924
35 | CC(=O)O[C@H]1C[C@@]2(C)[C@@H](C[C@@H](O)[C@H]3[C@@]4(C)CC[C@@H](O)[C@@H](C)[C@@H]4CC[C@@]32C)/C1=C(\CCC=C(C)C)C(=O)O [Fusidic acid sodium salt] | 0.886 | 0.472 | 0.66 | 0.881
36 | CC(C)(C)NC[C@H](O)COc1nsnc1N1CCOCC1 [Timolol maleate salt] | 1.05 | 0.861 | 0.968 | 0.847
37 | CN1C2CCCC1CC(NC(=O)c1nn(C)c3ccccc13)C2 (configuration not stated) [Granisetron] | 1.21 | 0.949 | 1.03 | 0.886
38 | CCN1CCC[C@H]1CNC(=O)c1c(O)c(Cl)cc(Cl)c1OC [Raclopride] | 1.15 | 0.885 | 1.29 | 0.908
39 | CN(C)CCCSC(=N)N [Dimaprit dihydrochloride] | 0.994 | 0.923 | 0.733 | 0.814
40 | Cc1nc2n(c(=O)c1CCN1CCC(c3noc4cc(F)ccc34)CC1)CCCC2 [Risperidone] | 0.784 | 0.951 | 0.816 | 0.836
41 | Cc1ccc(C(=O)c2cc(O)c(O)c([N+](=O)[O-])c2)cc1 [Tolcapone] | 0.819 | 0.968 | 0.987 | 0.877
42 | CN1CCN(C(c2ccccc2)c2ccc(Cl)cc2)CC1 (configuration not stated) [Chlorcyclizine hydrochloride] | 1.18 | 0.991 | 0.912 | 0.653
43 | CCCCC1(COC(=O)CCC(=O)O)C(=O)N(c2ccccc2)N(c2ccccc2)C1=O [Suxibuzone] | 0.949 | 0.778 | 0.815 | 0.935
44 | CCOC(=O)[C@H](CCc1ccccc1)N[C@@H](C)C(=O)N1Cc2ccccc2C[C@H]1C(=O)O [Quinapril hydrochloride] | 0.871 | 0.818 | 1.12 | 1.12
45 | Clc1ccccc1C(c1ccccc1)(c1ccccc1)n1ccnc1 [Clotrimazole] | 1.34 | 1.15 | 0.694 | 0.847
46 | NC(=O)OCC(COC(N)=O)c1ccccc1 [Felbamate] | 1.1 | 1 | 1.07 | 1.04
47 | COC(=O)C1=C(C#N)NC(C)=C(C(=O)OC(C)C)C1c1cccc([N+](=O)[O-])c1 (configuration not stated) [Nilvadipine] | 0.298 | 0.673 | 0.763 | 0.65
48 | CCCCS(=O)(=O)N[C@@H](Cc1ccc(OCCCCC2CCNCC2)cc1)C(=O)O [Tirofiban hydrochloride] | 1.11 | 1 | 1.25 | 0.865
